The values below come from PubChem BioAssay AID1745853 (National Center for Advancing Translational Sciences (NCATS), 2022).

Several values for one entry are separate records, joined by “and”; a condition that tells them apart may be missing. Equal values may be shown once. This is one part of the list. These are further read-outs of the screen, such as a control signal, another cell line or another target. No call is given for them.

What all share (assay): Primary Screen for Target Class Profiling of Small Molecule Inhibitors of Methyltransferases
Experiment [1] has as its target Glycine N-methyltransferase (Homo sapiens) (UniProt Q14749). To be noted: purified enzyme, MTase-Glo SAH luminescence; measured here: GNMT inhibition; at 40 µM; stronger effect = lower value. In outline:
(§1)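 Each enzyme was assayed with SAM and its substrate. SAH formation detected by MTase-Glo luminescence; single-point 40 uM screen[…].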

Experiment [2] deals with Guanidinoacetate N-methyltransferase (Homo sapiens) (UniProt Q14353). To be noted: purified enzyme, MTase-Glo SAH luminescence; measured here: GAMT inhibition; at 40 µM; stronger effect = lower value. The essentials: as §1
For experiment [3], the target named is Histamine N-methyltransferase (Homo sapiens) (UniProt P50135). As to conditions: purified enzyme, MTase-Glo SAH luminescence; measured here: HNMT inhibition; at 40 µM; stronger effect = lower value. The essentials:
as §1

Experiment [4] has as its target Nicotinamide N-methyltransferase (Homo sapiens) (UniProt P40261). To be noted: purified enzyme, MTase-Glo SAH luminescence; measured here: NNMT inhibition; at 40 µM; stronger effect = lower value. In outline:
as §1

The target of experiment [5] is Phenylethanolamine N-methyltransferase (Homo sapiens) (UniProt P11086). To be noted: purified enzyme, MTase-Glo SAH luminescence; measured here: PNMT inhibition; at 40 µM; stronger effect = lower value. The essentials:
as §1
On the % scale 0 is the no-effect control and ±100 the full control effect.

As for `COc1ncc(Nc2ncc([C@H](C)N3CCN(S(C)(=O)=O)CC3)cc2-c2nc(C)nc(N)n2)cc1F`, the activity change, negative = inhibition in experiment [1] was -17.7%; in experiment [2], -13.2%; in experiment [3], -8.27%; in experiment [4], -22.2%; in experiment [5], -24.8%.

For `Clc1ccc(-c2nnn3c2nc(NCCc2c[nH]c4ccccc24)c2ccccc23)cc1`, the activity change, negative = inhibition in experiment [1] was -1.98%; in experiment [2], 5.39%; in experiment [3], 0.844%; in experiment [4], -1.47%; in experiment [5], -4.75%.

Take `O=c1[nH]c2ccc(S(=O)(=O)N(CCO)CCO)cc2[nH]1`: the activity change, negative = inhibition was 3.94% in experiment [1]; 0% in experiment [2]; 7.49% in experiment [3]; 7.51% in experiment [4]; -1.72% in experiment [5].

Consider `CCOC(=O)c1cc2n(n1)CC(C)(C(=O)NCc1ccccc1OC)N(c1ccc(CC)cc1)C2=O` (stereo not given), for which the activity change, negative = inhibition in experiment [1] was found to be 6.82%; in experiment [2] it was 0%; in experiment [3], 11.4%; in experiment [4], 6.86%; in experiment [5] it was 5.77%.

In the case of `COCCN1C(=O)c2cc3ccc(OC)cc3n2CC1(C)C(=O)NC1CCCCCC1` (stereo not given), the activity change, negative = inhibition in experiment [1] was 1.58%; in experiment [2], 0%; in experiment [3], 0.478%; in experiment [4] it was 1.25%; in experiment [5], -1.33%.

For the compound `COc1cccc(CSc2nnc3n(CCc4ccccc4)c(=O)c4ccccc4n23)c1`, the activity change, negative = inhibition in experiment [1] was -4.7%; in experiment [2], -0.931%; in experiment [3], 4.61%; in experiment [4] it was -8.29%; in experiment [5] it was -1.23%.

For the compound `CCOC(=O)Nc1ccc(NCc2ccc(F)cc2)nc1N`, the activity change, negative = inhibition is -78% in experiment [1]; -67.1% in experiment [2]; -12.7% in experiment [3]; -24.6% in experiment [4]; -13% in experiment [5].

For `COc1ccccc1CNC(=O)C1c2c(n(C)c3ccccc23)SCC(=O)N1c1cc(C)cc(C)c1` (stereo not given), the activity change, negative = inhibition in experiment [1] amounted to 6.83%; in experiment [2], 0.879%; in experiment [3], 0.533%; in experiment [4], 2.52%; in experiment [5], 5.43%.

Consider `CC1(C(=O)NC2CCCC2)Cn2c(ccc2-c2ccco2)C(=O)N1c1ccc2c(c1)OCO2` (stereo not given), for which the activity change, negative = inhibition is -22.6% in experiment [1]; -12.1% in experiment [2]; -5.84% in experiment [3]; -15.3% in experiment [4]; -13.4% in experiment [5].

As to `Cc1cc(C)cc(NC(=O)CSc2nnc3n(CCc4ccccc4)c(=O)c4ccccc4n23)c1`, the activity change, negative = inhibition stood at 7.54% in experiment [1]; 1.13% in experiment [2]; 12.7% in experiment [3]; 6.43% in experiment [4]; 7.2% in experiment [5].

In the case of `N#Cc1cccc(C(=O)N2CCCOCCNC(=O)CC2)c1`, the activity change, negative = inhibition is -3.2% in experiment [1]; -13.8% in experiment [2]; -2.56% in experiment [3]; -6.56% in experiment [4]; -2.2% in experiment [5].

Turning to `C[C@@H]1C[C@@H]2O[C@H]2/C=C\C=C\C(=O)Cc2c(Cl)c(O)cc(O)c2C(=O)O1`, the values for the activity change, negative = inhibition in experiment [1] and in experiment [3] were -9.16% and 7.71%, respectively.

As for `C[C@@H]1C(=O)O[C@H]2CC34[C@H]5C[C@@H](C(C)(C)C)C36[C@@H](OC(=O)[C@@H]6O)OC4(C(=O)O5)[C@]21O` (stereo not given in full), the activity change, negative = inhibition was -2.9% in experiment [1]; -11% in experiment [2]; 7.18% in experiment [3]; -20.9% in experiment [4]; 0.568% in experiment [5].

As to `COc1ccc(S(=O)(=O)Nc2ccc(C)n(CC(=O)O)c2=O)cc1`, the activity change, negative = inhibition in experiment [1] is -5.58%; in experiment [2], -11.5%; in experiment [3], -4.21%; in experiment [4] it was -12.6%; in experiment [5], -9.31%.

For the compound `C=CCCC(CN1CCCOCC1)Oc1nccc(N(C)CC)n1` (stereo not given), the activity change, negative = inhibition was -3.11% in experiment [1]; -1.91% in experiment [2]; -1.19% in experiment [3]; -7.99% in experiment [4]; 0.96% in experiment [5].

Regarding `CCCn1c(=O)c2ccccc2n2c(=O)n(CC(=O)Nc3ccc(C)c(C)c3)nc12`, the activity change, negative = inhibition in experiment [1] was 7.5%; in experiment [2], 4.31%; in experiment [3], 11.1%; in experiment [4] it was 4.4%; in experiment [5], 6.11%.

For the compound `Cn1cncc1C(N)(c1ccc(Cl)cc1)c1ccc2c(c1)c(-c1cccc(Cl)c1)cc(=O)n2C` (stereo not given), the activity change, negative = inhibition in experiment [1] is -43.9%; in experiment [2], -5.24%; in experiment [3], -43.3%; in experiment [4], -75.7%; in experiment [5] it was -29.4%.

In the case of `COC(=O)c1cc2n(n1)CC(C)(C(=O)NC1CCC(C)CC1)N(c1ccc(Cl)cc1C)C2=O` (stereo not given), the activity change, negative = inhibition in experiment [1] came out at 8.06%; in experiment [2], 0.013%; in experiment [3] it was 10%; in experiment [4], 6.39%; in experiment [5] it was 5.42%.

In the case of `CC1(C(=O)NC2CCCC2)Cn2c(cc3sccc32)C(=O)N1CCc1ccccc1` (stereo not given), the activity change, negative = inhibition in experiment [1] is -8.3%; in experiment [2], 0.862%; in experiment [3], -15.9%; in experiment [4] it was -10.9%; in experiment [5], -9.29%.

With `O=C1O[C@@H]2CN(c3ncccn3)C[C@@H]2N1CCc1ccc(F)cc1`, the activity change, negative = inhibition in experiment [1] is -1.32%; in experiment [2], 2.46%; in experiment [3], 1.59%; in experiment [4], -0.714%; in experiment [5], 16.6%.

Take `O=C(NO)c1ccc(CC(=O)N(CCO)c2ccccc2)cc1`: the activity change, negative = inhibition in experiment [1] is 1.54% and -11%; in experiment [2], 6.42%; in experiment [3], 10.7% and 1.24%; in experiment [4], -6.55% and 4.01%; in experiment [5], 4.46% and 38.5%.

With `COc1ccc(S(=O)(=O)N2CCCC(c3nnnn3-c3ccccc3)C2)cc1` (stereo not given), the activity change, negative = inhibition is -1.15% in experiment [1]; 1.19% in experiment [2]; 4.66% in experiment [3]; -2.23% in experiment [4]; 4.84% in experiment [5].

Take `C=C1C(=O)O[C@@H]2C[C@]3(C)[C@@H](CCC(C)=O)[C@@H]3C[C@H]12`: the activity change, negative = inhibition was -0.678% in experiment [1]; -2.82% in experiment [2]; 1.9% in experiment [3]; -12% in experiment [4]; -9.28% in experiment [5].

With `COc1ccc(CNC(=O)c2cc3n(n2)CC(C)(C(=O)NC2CCCC2)N(C)C3=O)cc1OC` (stereo not given), the activity change, negative = inhibition in experiment [1] was -5.42%; in experiment [2] it was 0%; in experiment [3], 3.98%; in experiment [4] it was -4.67%; in experiment [5], -5.65%.

`CC1CCCC(NC(=O)C2(C)Cn3c(cc4occc43)C(=O)N2CCc2ccc(Cl)cc2)C1C` (stereo not given): the activity change, negative = inhibition was -9.36% in experiment [1]; 3.3% in experiment [2]; -7.57% in experiment [3]; -4.55% in experiment [4]; -7.5% in experiment [5].

For the compound `Cc1ccccc1CNC(=O)C1(C)Cc2ccccc2C(=O)N1Cc1cccc(C(F)(F)F)c1` (stereo not given), the activity change, negative = inhibition is 13.4% in experiment [1]; 3.58% in experiment [2]; 12.9% in experiment [3]; 4.34% in experiment [4]; 7.98% in experiment [5].

For the compound `NS(=O)(=O)c1cccc(N=Cc2c(O)[nH]c3ccccc23)c1`, the activity change, negative = inhibition was -8.09% in experiment [2], -20.8% in experiment [4] and -2.06% in experiment [5].

Turning to `CCc1cccc(NS(=O)(=O)c2ccc3[nH]c4c(c3c2)CCCC4)c1`, the activity change, negative = inhibition was 4.49% in experiment [1]; 2.99% in experiment [2]; 3.19% in experiment [3]; -8.09% in experiment [4]; 2.24% in experiment [5].

`COc1cc(Oc2ccnc3cc(OC)c(OC)cc23)ccc1NC(=O)NC(C)c1nccs1` (stereo not given): the activity change, negative = inhibition in experiment [1] is -10.6%; in experiment [2], -9.12%; in experiment [3], -27.5%; in experiment [4], -42.1%; in experiment [5], -1.3%.

In the case of `CC1(C(=O)NC2CCCCC2)Cn2c(ccc2-c2ccco2)C(=O)N1CCc1ccco1` (stereo not given), the activity change, negative = inhibition in experiment [1] is -0.321%; in experiment [2], -0.985%; in experiment [3] it was 6.86%; in experiment [4], -1.13%; in experiment [5], 4.88%.
